Measurements from the supplement of paper PMC4967469.
Lines with a small IC50 respond at low doses; fits outside the tested doses are given as limits. AUC is the area under the same curve over the 256-fold range up to the top dose, as a fraction; values near 1 show little effect. For some assays here: The top dose, if marked as inferred, was derived from the fitted curves, not read from the paper. For some assays here: An entry number marks a drug with two screens in the source, which often give different values.

Legend:
Test in all cases: Viability of human cancer cell lines after 72 h of drug (GDSC screen)
UNC0638 = compound: COc1cc2c(NC3CCN(C(C)C)CC3)nc(C3CCCCC3)nc2cc1OCCCN1CCCC1 [UNC0638]
Protocol: (§1)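 Human cancer cell lines in 384-well plates, medium with 10% serum, drug for 72 h over a 256-fold dose range (nine 2-fold or five 4-fold steps up to the top dose). Adherent lines were fixed and stained with the nucleic acid dye Syto60, suspension lines read with resazurin; signal relative to control wells, capped at 0 and 100%. One two-parameter sigmoid per drug and line, fitted in a mixed model over all curves with the slope shared within a line.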

Tretinoin = compound: CC1=C(/C=C/C(C)=C/C=C/C(C)=C/C(=O)O)C(C)(C)CCC1 [Tretinoin]; conditions: top dose 10 µM; top dose inferred
Protocol: as §1

WH-4-023 = compound: COc1ccc(N(C(=O)Oc2c(C)cccc2C)c2ccnc(Nc3ccc(N4CCN(C)CC4)cc3)n2)c(OC)c1 [WH-4-023]; conditions: top dose 5.12 µM; top dose inferred
Protocol: as §1

BX-795 = compound: O=C(NCCCNc1nc(Nc2cccc(NC(=O)N3CCCC3)c2)ncc1I)c1cccs1 [BX-795]; conditions: top dose 5 µM; top dose inferred
Protocol: as §1

SB-505124 = compound: Cc1cccc(-c2[nH]c(C(C)(C)C)nc2-c2ccc3c(c2)OCO3)n1 [SB-505124]; conditions: top dose 10 µM; top dose inferred
Protocol: as §1

GSK690693 = compound: CCn1c(-c2nonc2N)nc2c(C#CC(C)(C)O)ncc(OC[C@H]3CCCNC3)c21 [GSK690693]; conditions: top dose 10.24 µM; top dose inferred
Protocol: as §1

PI-103 = compound: Oc1cccc(-c2nc(N3CCOCC3)c3oc4ncccc4c3n2)c1 [PI-103]; conditions: top dose 10.24 µM
Protocol: as §1

[1] = top dose 20 µM, screen: GDSC drug entry 1236, top dose inferred
[2] = top dose 40 µM, screen: GDSC drug entry 245

Cell Line | AUC (UNC0638; [1]) | IC50 (UNC0638; [1]) [µM] | AUC (UNC0638; [2]) | IC50 (UNC0638; [2]) [µM] | AUC (Tretinoin) | IC50 (Tretinoin) [µM] | AUC (WH-4-023) | IC50 (WH-4-023) [µM] | AUC (BX-795) | IC50 (BX-795) [µM] | AUC (SB-505124) | IC50 (SB-505124) [µM] | AUC (GSK690693) | IC50 (GSK690693) [µM] | AUC (PI-103) | IC50 (PI-103) [µM]
SLVL (B-cell lymphoma, suspension) | 0.782 | 8.91 | 0.641 | 6.29 | 0.97 | > 10 | 0.955 | > 5.12 | 0.973 | > 5 | 0.973 | > 10 | 0.863 | 9.74 | 0.354 | 0.246
SNB75 (glioma, adherent) | 0.774 | 11.8 | 0.636 | 7.1 | 0.964 | > 10 | 0.557 | 0.493 | 0.882 | > 5 | 0.925 | > 10 | 0.909 | > 10.2 | 0.688 | 2.77
SNU-C1 (large intestine, suspension) | 0.773 | 11.8 | 0.909 | > 40 | 0.953 | > 10 | 0.98 | > 5.12 | 0.909 | > 5 | 0.962 | > 10 | 0.939 | > 10.2 | 0.98 | > 10.2
SNU-C2B (large intestine, adherent) | 0.843 | > 20 | 0.703 | 11.3 | 0.945 | > 10 | 0.873 | > 5.12 | 0.937 | > 5 | 0.978 | > 10 | 0.977 | > 10.2 | 0.782 | 5.79
SR (lymphoid neoplasm, suspension) | 0.75 | 5.97 | 0.575 | 3.92 | 0.987 | > 10 | 0.977 | > 5.12 | 0.711 | 1.15 | 0.947 | > 10 | 0.897 | > 10.2 | 0.171 | 0.0745
ST486 (Burkitt lymphoma, suspension) | 0.835 | 11.1 | 0.506 | 2.6 | 0.95 | > 10 | 0.901 | > 5.12 | 0.901 | > 5 | 0.982 | > 10 | 0.918 | > 10.2 | 0.176 | 0.079
SU-DHL-4 (B-cell lymphoma, suspension) | 0.874 | 10.6 | 0.441 | 1.8 | 0.995 | > 10 | 0.491 | 0.304 | 0.943 | 4.53 | 0.997 | > 10 | 0.068 | 0.0486 | 0.234 | 0.144
SU-DHL-6 (B-cell lymphoma, suspension) | 0.859 | 10.2 | 0.651 | 5.81 | 0.963 | > 10 | 0.391 | 0.174 | 0.751 | 1.3 | 0.993 | > 10 | 0.063 | 0.041 | 0.017 | < 0.04
SU-DHL-16 (B-cell lymphoma, suspension) | 0.86 | 9.89 | 0.748 | 10 | 0.977 | > 10 | 0.59 | 0.529 | 0.803 | 1.73 | 0.988 | > 10 | 0.045 | < 0.04 | 0.008 | < 0.04
SUP-HD1 (Hodgkin lymphoma, suspension) | 0.822 | 10.9 | 0.562 | 3.65 | 0.975 | > 10 | 0.927 | > 5.12 | 0.764 | 1.73 | 0.984 | > 10 | 0.876 | 9.35 | 0.374 | 0.293
SUP-M2 (anaplastic large cell lymphoma, suspension) | 0.624 | 2.51 | 0.577 | 3.85 | 0.993 | > 10 | 0.994 | > 5.12 | 0.708 | 1.02 | 0.965 | > 10 | 0.969 | > 10.2 | 0.104 | 0.0561
SUP-T1 (T-cell lymphoblastic leukaemia, suspension) | 0.833 | 11.3 | 0.663 | 6.78 | 0.962 | > 10 | 0.986 | > 5.12 | 0.928 | > 5 | 0.972 | > 10 | 0.938 | > 10.2 | 0.599 | 1.16
SW684 (fibrosarcoma, adherent) | 0.98 | > 20 | 0.973 | > 40 | 0.969 | > 10 | 0.409 | 0.16 | 0.917 | > 5 | 0.98 | > 10 | 0.98 | > 10.2 | 0.921 | > 10.2
SW962 (urogenital system, adherent) | 0.838 | 18.4 | 0.809 | 27.4 | 0.968 | > 10 | 0.661 | 1 | 0.774 | 2.46 | 0.934 | > 10 | 0.958 | > 10.2 | 0.859 | > 10.2
